Results reported in patent US20200338132A1, “COMPOSITIONS AND METHODS FOR THE EXPANSION OF HEMATOPOIETIC STEM AND PROGENITOR CELLS AND TREATMENT OF INHERITED METABOLIC DISORDERS” (Magenta Therapeutics Inc., priority 2018, published 2020).

Columns and labels:
[1] = tested on: CD90− cells; assay: CD90 expression on sorted CD90− cells cultured 8 days with compounds, FACS; assay type: cell-based, human
Text: FIG. 20 is a diagram for an experimental protocol to determine the disconnect between phenotype and function of CD90+ cells. Unsorted cells will be sorted using CD90 and CD34 as markers, and cultured with compounds. Cultured CD34+CD90+ and CD34+CD90− cells will be phenotyped in vitro via FACS and/or assayed for colony formation on methylcelulose.
TSA and VAP (concentrations in μM, as shown).
First, unsorted cells were sorted using CD34 and CD90 into two populations, a CD34+CD90− population and a CD34+CD90+ population. CD90− cells were cultured for 8 days with DMSO, SR1, UM171 or valproic acid (VPA). These cultured cells were the phenotyped for CD34 and CD90 expression using FACS. […] Second, cells cultured with various compounds were assessed for their ability to form colonies on methylcelulose.

[2] = patients transplanted with SR1-expanded cord blood cells versus historical controls; cited from earlier work
[3] = tested on: CD90− and CD90+ sorted cells; assay: colony formation on methylcellulose of sorted CD90− or CD90+ cells cultured with compounds; details: versus vehicle; for colony formation of CD90− sorted cells: TSA 30 nM and 100 nM
[4] = tested on: CD34+ cord blood cells; details: known from the art; cited from earlier work
[5] = tested on: mobilized peripheral blood cells; assay: 7-day expansion of mobilized peripheral blood cells, 10-point dose response, FACS for CD34 and CD90; details: after 7 days of expansion
[6] = tested on: cord blood CD34+ cells; assay: phenotypic expansion of cord blood CD34+ cells, CD90+ cell number at optimal concentrations; assay type: cell-based, human; details: relative to vehicle-treated cells
[7] = Scriptaid 100 nM and 300 nM, TSA 30 nM

Compound	CD90 expression of sorted CD90− cells after culture [1]	decrease in time to neutrophil recovery [2] [weeks]	colony formation of CD90− sorted cells ([3]; Scriptaid 100 nM and 300 nM)	colony formation of CD90+ sorted cells [3, 7]	CD90 expression in CD90− cells [4]	number of CD90+ cells [5]	colony formation of CD90+ sorted cells ([3]; TSA 100 nM)	CD90+ cell number following expansion [6]
CC(C)n1cnc2c(NCCc3ccc(O)cc3)nc(-c3csc4ccccc34)nc21 [SR1, StemRegenin1]	remained uniformly CD90−	2	none of these cultured cells were able to form colonies better than the vehicle alone	significantly better than vehicle alone	–	–	–	–
CC(/C=C/C(=O)NO)=C\[C@@H](C)C(=O)c1ccc(N(C)C)cc1 [TSA, trichostatin A]	–	–	none of these cultured cells were able to form colonies better than the vehicle alone	able to form colonies, at least at approximately the same level as vehicle alone	upregulate CD90 in CD90− cells	greatest increase in the number of CD90+ cells	exception	–
CCCC(CCC)C(=O)O [VPA, valproic acid]	gained CD90 expression	–	–	–	upregulate CD90 in CD90− cells	greatest increase in the number of CD90+ cells	–	increased number of CD90+ expressing cells
Nc1ccccc1NC(=O)c1ccc(CNC(=O)OCc2cccnc2)cc1 [Entinostat]	–	–	–	–	–	–	–	increased number of CD90+ expressing cells
O=C(CCCCCN1C(=O)c2cccc3cccc(c23)C1=O)NO [Scriptaid]	–	–	none of these cultured cells were able to form colonies better than the vehicle alone	able to form colonies, at least at approximately the same level as vehicle alone	–	–	–	–
Cc1cc(C)cc(C(=O)NOCCCCCC(=O)NO)c1 [LMK235]	–	–	–	–	–	–	–	increased number of CD90+ expressing cells
